Relative growth data for 36 molecules are collected here from the supplement of paper PMC9446081.

Screen size: about 39,000 compounds; about 220 (0.56%) showed activity. The list shows a part of the results.
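Further: static incubation at 37 °C against the wild-type strain, values averaged over two biological replicates.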

The subject of the test is Escherichia coli K-12 BW25113. The test is described as follows: relative growth (OD600 normalised to plate interquartile mean) (fraction); higher = less growth inhibition, active = 0.2 or less. The conditions noted are these: 50 µM; LB; incubation time: overnight (16-24 h).
For `C[C@@H]1CCCCO[C@H](CN(C)C(=O)Nc2cccc3ccccc23)[C@@H](C)CN([C@H](C)CO)C(=O)c2cc(NC(=O)CCC(F)(F)F)ccc2O1`, the relative growth was inactive: 1.
For `CCC(=O)NNC(=O)c1cccc(O)c1` the value was inactive: 0.9; for `Cc1onc(-c2ccccc2Cl)c1C(=O)NC1C(=O)N2C1SC(C)(C)C2C(=O)[O-].[Na+]` (stereo unspecified), inactive: 1.04.
For `C[C@H](CO)N1C[C@H](C)[C@H](CN(C)C(=O)Cc2ccccn2)Oc2cc(C#Cc3ccccc3)ccc2S1(=O)=O` the value was inactive: 0.999; for `Cn1cnc(S(=O)(=O)N[C@H]2CC[C@H](CC(=O)NCC3CC3)O[C@@H]2CO)c1`, inactive: 0.976.
For the molecule `O=C(C[C@@H]1CC[C@@H]2[C@H](COC[C@H](O)CN2S(=O)(=O)c2ccc(Cl)cc2)O1)NCc1ccncn1`, the relative growth is inactive: 1.01.
As for `COc1ccc(S(=O)(=O)N[C@@H]2CC[C@H](CC(=O)N3CCN(c4ccccc4)CC3)O[C@H]2CO)cc1`, the figure is inactive: 0.993; as for `C[C@H]1CN([C@@H](C)CO)C(=O)c2cc(NS(C)(=O)=O)ccc2O[C@H]1CN(C)Cc1ccc(C(=O)O)cc1`, inactive: 1.02.
On to `CCS(=O)(=O)Nc1ccc2c(c1)C(=O)N(C)[C@@H]1CC[C@H](CC(=O)N[C@@H]3CCN(Cc4ccccc4)C3)O[C@@H]1CO2`, for which the relative growth is inactive: 1.02.
For `CC(C)NC(=O)Nc1ccc2c(c1)C(=O)N([C@@H](C)CO)C[C@@H](C)[C@@H](CN(C)C(=O)Nc1ccccc1)OCCCC[C@H](C)O2` the value was inactive: 0.894; for `C[C@@H]1CCCCO[C@H](CN(C)S(=O)(=O)c2ccc(Cl)cc2)[C@H](C)CN([C@@H](C)CO)C(=O)c2cc(NC(=O)Nc3ccc(F)cc3)ccc2O1`, inactive: 1.03; for `COc1ccc2c3c([nH]c2c1)[C@@H](CO)N(C[C@]13CN(C)C1)C(=O)CN1CCOCC1`, inactive: 1.03.
For `O=C(C[C@H]1C=C[C@H](NS(=O)(=O)c2ccc(F)cc2)[C@@H](CO)O1)NCc1ccc(Cl)c(Cl)c1` the value was inactive: 0.995.
As for `CC(C)NC(=O)N(C)C[C@H]1Oc2ccc(NC(=O)C3CCCCC3)cc2CC(=O)N([C@H](C)CO)C[C@H]1C`, the figure is inactive: 0.997.
Take `C[C@@H]1CN([C@H](C)CO)C(=O)c2cc(NC(=O)Cc3ccccc3)ccc2O[C@@H]1CN(C)C(=O)Nc1ccc(C(F)(F)F)cc1`: the relative growth is inactive: 0.986.
As for `C[C@@H]1CN([C@H](C)CO)C(=O)Cc2cc(NC(=O)C3CC3)ccc2O[C@H]1CN(C)C(=O)Nc1ccccc1`, the figure is inactive: 1.01; as for `C[C@@H]1CCCCO[C@@H](CN(C)S(C)(=O)=O)[C@@H](C)CN([C@@H](C)CO)C(=O)c2cc(N(C)C)ccc2O1`, inactive: 1.
As for `Cc1ccc(S(=O)(=O)N2C[C@@H](O)COC[C@H]3O[C@H](CC(=O)N[C@H]4CCN(Cc5ccccc5)C4)CC[C@@H]32)cc1`, the relative growth was inactive: 1.01.
Regarding `C[C@H](CO)N1C[C@H](C)[C@H](CN(C)Cc2ccc(-c3ccccc3)cc2)Oc2ccc(NC(=O)Cn3cnnn3)cc2C1=O`, the relative growth is inactive: 0.997.
In the case of `Cc1ccc(S(=O)(=O)N(C)C[C@H]2OCCCC[C@@H](C)Oc3ccc(NC(=O)CCC(F)(F)F)cc3C(=O)N([C@H](C)CO)C[C@H]2C)cc1`, the relative growth is inactive: 0.968.
For `COc1ccc([Si](C)(C)[C@H]2[C@H](CCO)O[C@@]3(C(=O)N(Cc4cccc(N5C(=O)c6ccccc6Oc6ccccc65)c4)c4ccccc43)[C@@H]2C)cc1` the value was inactive: 1.04.
For `C[C@@H]1CCCCO[C@H](CN(C)C(=O)Nc2ccc3c(c2)OCO3)[C@H](C)CN([C@H](C)CO)C(=O)c2cc(NC(=O)Cc3ccccc3)ccc2O1` the value was inactive: 1.
In the case of `C[C@@H]1CN([C@H](C)CO)C(=O)c2cccc(NC(=O)c3nc4ccccc4s3)c2O[C@@H]1CN(C)CC1CCCCC1`, the relative growth was inactive: 1.01.
As for `CO[C@@H]1CN(C)C(=O)c2ccc(NC(C)=O)cc2OC[C@@H](C)N(S(=O)(=O)c2cn(C)cn2)C[C@H]1C`, the figure is inactive: 0.958.
For `C[C@@H]1CN([C@@H](C)CO)C(=O)c2cc(NC(=O)Nc3ccccc3)ccc2O[C@@H](C)CCCCO[C@@H]1CN(C)C(=O)Nc1cccc2ccccc12`, the relative growth was inactive: 1.05.
As for `C[C@H]1CN([C@@H](C)CO)C(=O)c2cc(-c3ccc(C(=O)N(C)C)cc3)cnc2O[C@H]1CN(C)C(=O)CN(C)C`, the figure is inactive: 0.974; as for `CC(C)(C)[S@](=O)N1Cc2cc(C(=O)N3CCc4ccccc4C3)nc(-c3cccc(-c4cccnc4)c3)c2[C@@H]1CCO`, inactive: 1.03.
Regarding `C[C@@H]1CN([C@H](C)CO)C(=O)c2cc(NC(=O)Nc3cccc4ccccc34)ccc2O[C@@H](C)CCCCO[C@@H]1CN(C)S(=O)(=O)c1ccc(Cl)cc1`, the relative growth was inactive: 1.05.
For the molecule `C[C@H]1CN([C@@H](C)CO)C(=O)CCCn2nncc2CO[C@@H]1CN(C)C(=O)Nc1ccc(N2CCN(C)CC2)cc1`, the relative growth was inactive: 1.02.
Consider `C[C@@H]1CN([C@H](C)CO)C(=O)c2cc(NS(=O)(=O)c3ccc(F)cc3)ccc2O[C@@H]1CN(C)S(=O)(=O)c1cccs1`, for which the relative growth was inactive: 1.01.
Regarding `C[C@@H]1CN([C@@H](C)CO)C(=O)c2cc(C#CCN(C)C)cnc2O[C@H]1CN(C)C(=O)c1cnccn1`, the relative growth is inactive: 0.972.
As for `C[C@@H]1CN([C@H](C)CO)C(=O)c2cc(NC(=O)c3ccncc3)ccc2O[C@@H]1CN(C)S(=O)(=O)c1ccccc1`, the relative growth is inactive: 0.959.
As for `CC(C)NC(=O)Nc1cccc2c1O[C@H](CN(C)S(=O)(=O)c1ccc(Cl)cc1)[C@H](C)CN([C@H](C)CO)C2=O`, the figure is inactive: 0.968; as for `COc1ccc(CN(C)C[C@@H]2OCCCC[C@@H](C)Oc3ccc(NC(=O)CCC(F)(F)F)cc3C(=O)N([C@@H](C)CO)C[C@H]2C)cc1`, inactive: 0.977.
For `COc1ccc(NC(=O)N(C)C[C@@H]2OCCCC[C@H](C)Oc3ccc(NC(=O)NC(C)C)cc3C(=O)N([C@@H](C)CO)C[C@@H]2C)cc1` the value was inactive: 0.956; for `C[C@@H]1CN([C@@H](C)CO)C(=O)c2cccc(NC(=O)Nc3ccc4c(c3)OCO4)c2O[C@H]1CN(C)Cc1ccc(Cl)c(Cl)c1`, inactive: 1.02.
